The list shows a part of the results.

The assay deals with T1, OsWOX13 (Oryza sativa, UniProt Q5QMM3 1-267).
T1 sequence: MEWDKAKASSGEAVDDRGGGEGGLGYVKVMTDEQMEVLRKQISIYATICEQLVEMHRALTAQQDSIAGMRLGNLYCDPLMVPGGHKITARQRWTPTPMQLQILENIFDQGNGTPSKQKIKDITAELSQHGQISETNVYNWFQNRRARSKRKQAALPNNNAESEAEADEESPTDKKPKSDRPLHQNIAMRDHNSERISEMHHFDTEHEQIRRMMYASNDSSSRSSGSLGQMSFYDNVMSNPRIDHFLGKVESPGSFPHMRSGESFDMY
The experiment in a line: protein-binding microarray (RPBM); PBS, 2% BSA, 51.3 ng/ul salmon testes DNA, 50 uM zinc acetate, 200 nM TF, 25 C, 1 h; high values mean tight binding. The following applies: protein: recombinant; tags: N-terminal polyhistidine and DsRed monomer fusion (pET32a); label: CyDye5-dUTP incorporated in the synthesized complementary strand; 3' TTTTT single-stranded linker to array surface; dsDNA, one strand shown. The essentials: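 Transcription factors were made in E. coli BL21-CodonPlus as N-terminal fusions to a polyhistidine tag and DsRed, then purified on Ni–NTA. After primer extension with Cy5-dUTP and blocking with 2% BSA, a custom Agilent array was exposed for 1 h at 25 °C to 200 nM protein in PBS, 2% BSA, salmon testes DNA and 50 µM zinc acetate. Washed arrays were scanned on an Axon 4000B, and the binding signal is per-feature fluorescence intensity in arbitrary units.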
Take “AAATTGGATGGAAATTGACAGATAGACCAGCCAAACGATCCGGAGTCACCTAGTGCAG”: the binding signal was 26400 fluorescence intensity (a.u.).

As for “GCTAATTTAGATTGCTGTCAAAATAAACCTTTCTAAAATTCGGAGTCACCTAGTGCAG”, the binding signal is 24000 fluorescence intensity (a.u.).

In the case of “ATCCATCATGTAAAATTGATGTTACTAGATTTATCATTAACGGAGTCACCTAGTGCAG”, the binding signal is 5970 fluorescence intensity (a.u.).

Take “GTGCATTTAAATCTCAATCATCTGCGTGATTTGATTGAGCCGGAGTCACCTAGTGCAG”: the binding signal was 45400 fluorescence intensity (a.u.).

For “GATGTAATTTGATTATCAAAACTAAAACAATTGGATACAACGGAGTCACCTAGTGCAG”, the binding signal was 26300 fluorescence intensity (a.u.). Regarding “TTCCTCCCTGTCATTATCCGCCCTACTTCCCATCAAAGATCGGAGTCACCTAGTGCAG”, the binding signal is 3750 fluorescence intensity (a.u.). Next, “AACCTTTCATTATTTATGTCCATGTACTCCCTGTTGAATTCGGAGTCACCTAGTGCAG”: 3370 fluorescence intensity (a.u.); “CTCATCATCAATCATCATCTCTGCAGCGTGACAGTAACATCGGAGTCACCTAGTGCAG”: 20100 fluorescence intensity (a.u.). Consider “GTATAATTAAATGGGGAAGTGTTGTGATTGGAGTAGAAGTCGGAGTCACCTAGTGCAG”, for which the binding signal was 27200 fluorescence intensity (a.u.).

Consider “AGTCATTGACCACCCAATTGAATCAAATTGTATGGTTGGTCGGAGTCACCTAGTGCAG”, for which the binding signal is 3230 fluorescence intensity (a.u.). For “GTTAATACTCAATTAATCATACGCTAATGGTTCACCTCATCGGAGTCACCTAGTGCAG”, the binding signal is 15900 fluorescence intensity (a.u.). The result for “CCAACTAATCATGCTTAGTTAGCAATTAAGCCATAAACAACGGAGTCACCTAGTGCAG” reads 9180 fluorescence intensity (a.u.); that for “AGTGTAATTAACTTTCTTCTTCTCTCCAACTGCTTCAGCTCGGAGTCACCTAGTGCAG”, 11200 fluorescence intensity (a.u.); that for “TTAACAAAGTTAGTGATTAATGTTTCATCGACCGGTCTGGCGGAGTCACCTAGTGCAG”, 5290 fluorescence intensity (a.u.). Next, “GCCATTGATTGCGCCGGCGATGAATGCGGGCACGATTCGACGGAGTCACCTAGTGCAG”: 30900 fluorescence intensity (a.u.). “TTCTAATTTTAAAATCAGTAACACCAAACAAAATGCGCCTCGGAGTCACCTAGTGCAG”: the binding signal was 21000 fluorescence intensity (a.u.). The result for “CTAACTAGCAAATTATGAGAATCTTAAGCTCCTCATTTCACGGAGTCACCTAGTGCAG” reads 5910 fluorescence intensity (a.u.).

Take “GTAGATTCAACGAAACTAAATTGGCGTTGTATATGTTACTCGGAGTCACCTAGTGCAG”: the binding signal was 3710 fluorescence intensity (a.u.). Next, “AAATTAATTGTTATGATAAATATTATTATATTTATCTACCCGGAGTCACCTAGTGCAG”: 46000 fluorescence intensity (a.u.); “TACACCCCACTTACATATGTAATTAGTATATGTAATTTTCCGGAGTCACCTAGTGCAG”: 4610 fluorescence intensity (a.u.); “ATTAATTTATTACGCCGTCTACTTCTATTTTCGTCTACACCGGAGTCACCTAGTGCAG”: 35300 fluorescence intensity (a.u.). Next, “GATCAAATAGAATAAACAAAATGTCAAAATTCATGAGGACCGGAGTCACCTAGTGCAG”: 3340 fluorescence intensity (a.u.); “CACAGTTGATGAGCAAATAGAAAGAACAGGGGAGAATGGTCGGAGTCACCTAGTGCAG”: 11200 fluorescence intensity (a.u.); “ATACAAATCAATATTTCTTCGTCGAGCGTGTCAGGAAGGACGGAGTCACCTAGTGCAG”: 3210 fluorescence intensity (a.u.). The result for “TAAATTATCTTCTTTTAATCTTGTACTCGAGTTAAGGATTCGGAGTCACCTAGTGCAG” reads 4080 fluorescence intensity (a.u.); that for “TCGCCTAATTGCGCCTGATTGGGCCACTAACGGGCCCACACGGAGTCACCTAGTGCAG”, 24700 fluorescence intensity (a.u.). As for “TCTTGCCAACTGATTGATCGATCCTGGAAGCTTGCTGCTGCGGAGTCACCTAGTGCAG”, the binding signal was 37900 fluorescence intensity (a.u.). Next, “GTTATATAACCAATTTTACCAATTAGTTACTCCTAGTACGCGGAGTCACCTAGTGCAG”: 7810 fluorescence intensity (a.u.); “AATTGAAATAATTGGAAATTTTCATATTTATATATTAAACCGGAGTCACCTAGTGCAG”: 5800 fluorescence intensity (a.u.); “GCATAAACTTTCAATTTTCCCGTCACATCGTTCCAATTTCCGGAGTCACCTAGTGCAG”: 4970 fluorescence intensity (a.u.). The result for “ACTGAAATCAATTAGCCTCTGCGAGTGAACTAAATCATGCCGGAGTCACCTAGTGCAG” reads 12600 fluorescence intensity (a.u.); that for “TCCGATTAATGTGGAAATTTCTAGCCTCCACAGCGAACGTCGGAGTCACCTAGTGCAG”, 8650 fluorescence intensity (a.u.); that for “CAGTGTGATTGACTGTTGAGGCGGAGTCGGAGCTGCTTGTCGGAGTCACCTAGTGCAG”, 50900 fluorescence intensity (a.u.). The result for “TGTTAATCTGCTGTGATGACTTGTCATCTTCCACTCTGTCCGGAGTCACCTAGTGCAG” reads 4940 fluorescence intensity (a.u.).

As for “TTGGCTTGATTGTCACATCGGATATACAGACACACATTTACGGAGTCACCTAGTGCAG”, the binding signal is 12400 fluorescence intensity (a.u.).

Consider “TGTTGAAATTGGCACGCTTAGACATAATGGTTGCTTGCTTCGGAGTCACCTAGTGCAG”, for which the binding signal was 8710 fluorescence intensity (a.u.). With “ATTTGATAATTTGGTTTAGGATTTTGCATGGGGCATGTGTCGGAGTCACCTAGTGCAG”, the binding signal was 17800 fluorescence intensity (a.u.). Next, “ACATTAATGATTAGAGACTATATTGTCTCTAACTGTTGTACGGAGTCACCTAGTGCAG”: 39900 fluorescence intensity (a.u.); “TTGATTTCTGTTATGTATGACGTGGCAGATGACTTAGTGTCGGAGTCACCTAGTGCAG”: 5730 fluorescence intensity (a.u.). For the sequence “TCTAATTTCTCCTAGTCAGAACCAAATTTTCTCCTCAGAACGGAGTCACCTAGTGCAG”, the binding signal is 3270 fluorescence intensity (a.u.). Take “TTGAGGTGTTTATGTAATCAATTATGGACGTTGAGAAGCACGGAGTCACCTAGTGCAG”: the binding signal was 4350 fluorescence intensity (a.u.).

In the case of “ACAAATTCAAGTAATTGATCGATTGATGTTACTATTTCGTCGGAGTCACCTAGTGCAG”, the binding signal was 33900 fluorescence intensity (a.u.).

“GTATTAATCACATTTCATTTCAACTTTTGATTCTGATATGCGGAGTCACCTAGTGCAG”: the binding signal is 5200 fluorescence intensity (a.u.). For “CTGATGATTGCACCCCACTTGAATCAAGGGTGTGACAAAACGGAGTCACCTAGTGCAG”, the binding signal is 15300 fluorescence intensity (a.u.). Next, “AATTTCAATTAAACTTTTAAATTTAACGTGAATTAAACACCGGAGTCACCTAGTGCAG”: 19600 fluorescence intensity (a.u.); “ATCAATTGCTTGCTGATTTGCCTTAGCAAGTCTTCAATTTCGGAGTCACCTAGTGCAG”: 12900 fluorescence intensity (a.u.); “CCTGATCAGTTAATTAGCCTATACGGTACCTCCAAACATTCGGAGTCACCTAGTGCAG”: 25900 fluorescence intensity (a.u.).

Take “AGAAATTTAAAATCTTGATAGTTTACTCTTTATTGGCTCTCGGAGTCACCTAGTGCAG”: the binding signal was 3560 fluorescence intensity (a.u.). Next, “ATTCATTAATCTGTACTAATTGATATTGCTAAGCAGCTGCCGGAGTCACCTAGTGCAG”: 34200 fluorescence intensity (a.u.); “ACCCAGCTAGTTTAAATTAAATGAATGATCAAAGGGCATTCGGAGTCACCTAGTGCAG”: 3500 fluorescence intensity (a.u.); “GAAGGATTGAGATATGATTGATTATTATATCATATACTCTCGGAGTCACCTAGTGCAG”: 55000 fluorescence intensity (a.u.). In the case of “GGCTGGTTATTGATGGATCCAAACCGAACACCAACGGCGGCGGAGTCACCTAGTGCAG”, the binding signal was 8030 fluorescence intensity (a.u.). The result for “ACGTATAAATTATTTATCCCGTACACGCCACCTTCATCTACGGAGTCACCTAGTGCAG” reads 15000 fluorescence intensity (a.u.); that for “ATTAAGGAATTAAATTTGAAAATATACTATTCATTTAATTCGGAGTCACCTAGTGCAG”, 3360 fluorescence intensity (a.u.).

These data come from PMC7819943, “Rice protein-binding microarrays: a tool to detect cis-acting elements near promoter regions in rice”.
